# Measured values taken from PubChem BioAssay AID1508623 (National Center for Advancing Translational Sciences (NCATS), 2021).
# Screen size: about 48,000 compounds; about 450 (0.94%) were called active. Another 19% or so got no clear call; they are omitted. Calls follow the shape of the dose curve; as a rule, active = well fitted inhibition curve with a large enough effect; inconclusive = small, poorly fitted or top-dose-only effect; inactive = no such curve, though single readings can be large or run the other way. Some of the results follow.
# Experiment: Primary qHTS for Identification of Small Molecule Inhibitors of Huntingtin Promoter Activity; also: nearly all actives have a fitted effect of over 50% in size
# Conditions: HEK293 HTT promoter firefly luciferase reporter (activity 0% = vehicle and -100% = no light), 24 h; series mostly up to 57.5 µM; activity change, negative = inhibition: at the top concentration
# Summary of the method: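 HEK293 luciferase promoter-reporter cells (2,500/well) plated 24 h, then compounds added at up to 57.5 uM final for 24 h at 37 °C. Firefly luminescence by Dual-Glo, normalized to vehicle (0%) and zero RLU (-100%).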
# Potency is read from the fitted curve at half-maximal effect.
SMILES,"activity change, negative = inhibition",Potency
Cc1ccc(Cl)cc1NC(=O)/C(C#N)=C\c1cn(Cc2ccc(F)cc2)c2ccccc12,inactive: -3.42% [at 11.5 µM],
CCOC(=O)c1c(S(=O)(=O)NCC(=O)NCc2ccc(C)cc2)c(C)n(C)c1C,inactive: 7.55%,
Cc1ccccc1C(=O)Nc1ccc2nc(SCCOc3ccccc3)sc2c1,inactive: -18.7%,
CC1C(=O)OC2C(O)C34C5CC(C(C)(C)C)C36C(OC(=O)C6O)OC4(C(=O)O5)C12O (centres undefined),inactive: 7.75%,
Fc1ccc(CNc2cc(-c3ccccc3)nc3nncn23)cc1,inactive: -27.2%,
COc1ccc(-c2nn(-c3ccc(F)cc3F)c3c2cnc2ccc(F)cc23)cc1,inactive: 3.13%,
N#Cc1ccccc1NC(=O)C(=O)NCC(c1cccnc1)N1CCN(c2ccccc2)CC1 (centres undefined),inactive: -27.6%,
Cc1cccc(C(=O)Nc2cccc(C(=O)OCc3cc(=O)n4nc(C5CC5)sc4n3)c2)c1,inactive: 6.48%,
Cc1ccc(OCC(=O)Nc2ccc(-c3nc4ccc(C)cc4o3)cc2)cc1,inactive: 67.5%,
CCOc1ccc(C(=O)Nc2ccc3nc(SCC(=O)N4CCOCC4)sc3c2)cc1,inactive: -24.7%,
CCN1CCN(C(=O)c2ccc3c(c2)N(Cc2cc(C)ccc2C)C(=O)c2ccccc2S3(=O)=O)CC1,inactive: -17.1%,
O=C(NCCc1ccccc1)c1cnc2sc(N3CCOCC3)nn2c1=O,inactive: 16.4%,
CCOC(=O)c1c(C)oc2nc(C)nc(NCCc3ccc(S(N)(=O)=O)cc3)c12,inactive: -28.4%,
CCCSCCCNC(=O)CN1C(=O)COc2ccc(S(=O)(=O)N3CCCCCC3)cc21,inactive: -21.7%,
O=C(Nc1ccc(F)cc1F)C1CCCN1S(=O)(=O)c1cccc2nsnc12 (centres undefined),inactive: -10.2% [at 11.5 µM],
CCCOc1ccc(CNC(=O)C2CCN(c3nn4c(=O)cc(C)nc4s3)CC2)cc1,inactive: -21.8%,
COc1cc(CNCCSc2nnnn2C)ccc1OCc1c(F)cccc1Cl,inactive: -14.6%,
Cc1cccc(-c2nnc(SCCC(=O)O)o2)c1,,active: 0.251 µM
CCOc1ccc(CCNC(=O)c2cnc3c(-c4ccccc4)c(C)nn3c2C)cc1OCC,inactive: -14.7%,
Cc1cccc(NC(=O)CN2C(=O)CCc3ccccc32)c1C,inactive: -26.7%,
COc1ccc(N2CCN(c3oc(/C=C/c4cccc(OC)c4)nc3C#N)CC2)cc1,inactive: -9.42%,
CC(C)c1ccc(OCC(=O)Nc2cc(-c3nc4ncccc4o3)ccc2Cl)cc1,inactive: -3.61%,
O=[N+]([O-])c1ccc(C(c2sc3nc(-c4ccco4)nn3c2O)N2CCC3(CC2)OCCO3)cc1 (centres undefined),inactive: -13.8%,
COc1ccccc1CNC(=O)C(C)n1c(=O)cc(C(F)(F)F)c2c(C)nn(C)c21 (centres undefined),inactive: 21%,
COc1cc(C2CC(=O)Nc3cc4c(cc32)OCCO4)cc(OC)c1O (centres undefined),inactive: -26.3%,

SMILES,"activity change, negative = inhibition",Potency
Nc1ccn(C2CO[C@H](CO)O2)c(=O)n1 (some centres undefined),inactive: 4.56%,
Cc1oncc1C(=O)Nc1ccc(C(F)(F)F)cc1,inactive,
O=c1[nH]c2cc(C(F)(F)F)c(N3CCOCC3)cc2n(CP(=O)(O)O)c1=O,inactive: -8.23%,
CCCCC(=O)Nc1ccc(OCc2cc(=O)n3ccc(C)cc3n2)cc1,inactive: -0.235%,
CCCCN(CCCC)c1nc(-c2ccccc2)nc2ccccc12,inactive: -23.3%,
COc1ccc(C(Cl)=C(c2ccc(OC)cc2)c2ccc(OC)cc2)cc1,inactive: 0.64%,
CCC(=O)Nc1ccc(C)cc1-c1nc2ccccc2n(Cc2ccccc2)c1=O,inactive: 3.59%,
CCN(C(=O)c1cc2c(Cl)nc3ccc(C)cc3c2s1)c1cc(OC)ccc1OC,inactive: -15.8%,
Cc1oc(-c2cccc(Cl)c2)nc1CSCC(=O)O,inactive: -29.4%,
CC1(c2ccccc2)CC(C)(C)N(C(=O)c2ccccc2Cl)c2ccccc21 (centres undefined),inactive: -28.3%,
COc1ccccc1C(=O)Nc1c(C(=O)Nc2ccc(C)cc2)oc2ccccc12,inactive: -4.19%,
CCOC(=O)c1c(N)sc2c1CCN(Cc1ccccc1)C2,inactive: -5.09%,
COc1ccccc1CNC(=O)c1cc(-c2ccccc2)n[nH]1,inactive: 13%,
Cc1ccc(N2C(=O)C(CC(=O)Nc3ccccc3)N(CCC3=CCCCC3)C2=O)cc1 (centres undefined),inactive: -0.321%,
Cc1ccc2nc(NC(=O)CSc3ncc(C(=O)Nc4ccccc4)c(=O)n3C)sc2c1,inactive: 6.22%,
CCOc1ccccc1N(CC)C(=O)c1cc2ccc3cccnc3c2[nH]1,inactive: -13.9%,
Cn1c2ccc(F)cc2c2nnc(SCCN3CCCCC3)nc21,inactive: -3.21%,
CCOc1ccccc1NC(=O)CN1C(=O)C(=O)c2ccccc21,inactive: -11.5%,
CC(C)NC(=O)c1sc2ncccc2c1-n1cccc1,inactive: 6.17%,
CCOc1ccc(CCNC(=O)c2sc3nc4n(c(=O)c3c2C)CCCC4)cc1,inactive: -7.42%,
O=C(O)Cn1nc(N2CCN(c3ccccc3)CC2)ccc1=O,inactive: 2.42%,
Cc1sc2c(c1C)c(=O)n(Cc1ccccc1)c(=O)n2CC(=O)Nc1cccc(Cl)c1,inactive: -22.5%,
CCOC(=O)Cn1cnc2c(cnn2-c2ccc(C)c(C)c2)c1=O,inactive: 56.5%,
Cc1ccccc1C(=O)NCc1ccc2c(c1)CCN2C(=O)c1ccc(F)cc1,inactive: -5.48%,
